# In the supplement of paper PMC8728848:
# This is one part of the list.
# B1: XL-35 (Xenopus laevis) (protein)
# chain: MLVHILLLLVTGGLSQSCDPVVIVASKNMVKQLDCDKFRNCKEIKDSNEEAQDGIYTLTSPDGISYQTFCDMTTNGGGWTLVASVHENNMAGKCTIGDRWSSQQGNRADYPEGDGNWANYNTFGSAGGATSDDYKNPGYYDIEAYNLGVWHVPNKTPLSVWRNSSLQRYRTTDGILFKHGGNLFSLYRIYPVKYGIGSCSKDSGPTVPVVYDLGSANLTASFYSPGFRSQFTPGYIQFRPINTEKAALALCPGMKMESCNVEHVCIGGGGYFPEADPRQCGDFAAYDFNGYGTKKFNSAGIEITEAAVLLFYL
# Legend:
# Assay in all cases: glycan array binding signal (z-score within array); higher = stronger binding
# Settings in all cases: glycan notation: IUPAC condensed, linker removed
# Fuc(a1-2)Gal = biological target: Fuc(a1-2)Gal
# How it was run: (§1)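 Glycan array data came from 3228 arrays in the Consortium for Functional Glycomics database, and only arrays with an available protein sequence were kept. Glycan names were put into IUPAC-condensed notation, and columns mapping to the same glycan were averaged. The binding signal is a within-array Z-score, averaged across arrays of one protein sequence run at different concentrations or buffers and across linkers. A negative Z-score can be read as non-binding.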
# Fuc(a1-2)Gal(b1-3)GalNAc = biological target: Fuc(a1-2)Gal(b1-3)GalNAc
# How it was run: as §1
# [1] = biological target: Fuc(a1-2)Gal(b1-3)GalNAc(a1-3)[Fuc(a1-2)]Gal(b1-4)Glc
# How it was run: as §1
# [2] = biological target: Fuc(a1-2)Gal(b1-3)GalNAc(a1-3)[Fuc(a1-2)]Gal(b1-4)GlcNAc
# How it was run: as §1
# [3] = biological target: Fuc(a1-2)Gal(b1-3)GalNAc(b1-3)Gal
# How it was run: as §1
# [4] = biological target: Fuc(a1-2)Gal(b1-3)GalNAc(b1-3)Gal(a1-4)Gal(b1-4)Glc
# How it was run: as §1
# [5] = biological target: Fuc(a1-2)Gal(b1-3)GalNAc(b1-3)Gal(b1-4)Glc
# How it was run: as §1
# [6] = biological target: Fuc(a1-2)Gal(b1-3)GalNAc(b1-4)[Neu5Ac(a2-3)]Gal(b1-4)Glc
# How it was run: as §1
# Fuc(a1-2)Gal(b1-3)GlcNAc = biological target: Fuc(a1-2)Gal(b1-3)GlcNAc
# How it was run: as §1
# [7] = biological target: Fuc(a1-2)Gal(b1-3)GlcNAc(b1-2)Man(a1-3)[Fuc(a1-2)Gal(b1-3)GlcNAc(b1-2)Man(a1-6)]Man(b1-4)GlcNAc(b1-4)GlcNAc
# How it was run: as §1
# [8] = biological target: Fuc(a1-2)Gal(b1-3)GlcNAc(b1-2)Man(a1-3)[Fuc(a1-2)Gal(b1-3)GlcNAc(b1-2)Man(a1-6)]Man(b1-4)GlcNAc(b1-4)[Fuc(a1-6)]GlcNAc
# How it was run: as §1
# [9] = biological target: Fuc(a1-2)Gal(b1-3)GlcNAc(b1-3)Gal(b1-4)Glc
# How it was run: as §1
# [10] = biological target: Fuc(a1-2)Gal(b1-3)GlcNAc(b1-3)GalNAc
# How it was run: as §1
# [11] = biological target: Fuc(a1-2)Gal(b1-3)GlcNAc(b1-3)[Fuc(a1-2)Gal(b1-3)GlcNAc(b1-6)]GalNAc
# How it was run: as §1
# [12] = biological target: Fuc(a1-2)Gal(b1-3)GlcNAc(b1-3)[Gal(b1-4)GlcNAc(b1-6)]Gal(b1-4)Glc
# How it was run: as §1
# [13] = biological target: Fuc(a1-2)Gal(b1-3)GlcNAc(b1-3)[Neu5Ac(a2-6)Gal(b1-4)GlcNAc(b1-6)]Gal(b1-4)Glc
# How it was run: as §1
# [14] = biological target: Fuc(a1-2)Gal(b1-3)GlcNAc6S
# How it was run: as §1
# [15] = biological target: Fuc(a1-2)Gal(b1-3)[Fuc(a1-4)]GlcNAc
# How it was run: as §1
# [16] = biological target: Fuc(a1-2)Gal(b1-3)[Fuc(a1-4)]GlcNAc(b1-2)Man(a1-3)[Fuc(a1-2)Gal(b1-3)[Fuc(a1-4)]GlcNAc(b1-2)Man(a1-3)]Man(b1-4)GlcNAc(b1-4)GlcNAc
# How it was run: as §1
# [17] = biological target: Fuc(a1-2)Gal(b1-3)[Fuc(a1-4)]GlcNAc(b1-2)Man(a1-3)[Fuc(a1-2)Gal(b1-3)[Fuc(a1-4)]GlcNAc(b1-2)Man(a1-6)]Man(b1-4)GlcNAc(b1-4)[Fuc(a1-6)]GlcNAc(b1-4)[Fuc(a1-6)]GlcNAc
# How it was run: as §1
# [18] = biological target: Fuc(a1-2)Gal(b1-3)[Fuc(a1-4)]GlcNAc(b1-3)[Fuc(a1-3)[Gal(b1-4)]GlcNAc(b1-6)]Gal(b1-4)Glc
# How it was run: as §1
# [19] = biological target: Fuc(a1-2)Gal(b1-3)[Fuc(a1-4)]GlcNAc(b1-3)[Gal(b1-4)GlcNAc(b1-6)]Gal(b1-4)Glc
# How it was run: as §1
# [20] = biological target: Fuc(a1-2)Gal(b1-4)Fuc(a1-3)]GlcNAc(b1-2)Man(a1-3)[Fuc(a1-2)Gal(b1-4)[Fuc(a1-3)]GlcNAc(b1-2)Man(a1-6)]Man(b1-4)GlcNAc(b1-4)GlcNAc
# How it was run: as §1
# Fuc(a1-2)Gal(b1-4)Glc = biological target: Fuc(a1-2)Gal(b1-4)Glc
# How it was run: as §1
# Fuc(a1-2)Gal(b1-4)Glc6S = biological target: Fuc(a1-2)Gal(b1-4)Glc6S
# How it was run: as §1
# Fuc(a1-2)Gal(b1-4)GlcNAc = biological target: Fuc(a1-2)Gal(b1-4)GlcNAc
# How it was run: as §1
# [21] = biological target: Fuc(a1-2)Gal(b1-4)GlcNAc(b1-2)Man
# How it was run: as §1
# [22] = biological target: Fuc(a1-2)Gal(b1-4)GlcNAc(b1-2)Man(a1-3)[Fuc(a1-2)Gal(b1-4)GlcNAc(b1-2)Man(a1-6)]Man(b1-4)GlcNAc(b1-4)GlcNAc
# How it was run: as §1
# [23] = biological target: Fuc(a1-2)Gal(b1-4)GlcNAc(b1-2)Man(a1-3)[Fuc(a1-2)Gal(b1-4)GlcNAc(b1-2)Man(a1-6)]Man(b1-4)GlcNAc(b1-4)[Fuc(a1-6)]GlcNAc
# How it was run: as §1
# [24] = biological target: Fuc(a1-2)Gal(b1-4)GlcNAc(b1-2)[Fuc(a1-2)Gal(b1-4)GlcNAc(b1-4)]Man(a1-3)[Fuc(a1-2)Gal(b1-4)GlcNAc(b1-2)Man(a1-6)]Man(b1-4)GlcNAc(b1-4)GlcNAc
# How it was run: as §1
binder,measurement,setting,value
B1,glycan array binding signal (z-score),Fuc(a1-2)Gal,0.253
same,glycan array binding signal (z-score),Fuc(a1-2)Gal(b1-3)GalNAc,-0.094
same,glycan array binding signal (z-score),[1],0.018
same,glycan array binding signal (z-score),[2],-0.565
same,glycan array binding signal (z-score),[3],-0.134
same,glycan array binding signal (z-score),[4],-0.19
same,glycan array binding signal (z-score),[5],-0.081
same,glycan array binding signal (z-score),[6],-0.108
same,glycan array binding signal (z-score),Fuc(a1-2)Gal(b1-3)GlcNAc,-0.129
same,glycan array binding signal (z-score),[7],0.025
same,glycan array binding signal (z-score),[8],0.565
same,glycan array binding signal (z-score),[9],-0.076
same,glycan array binding signal (z-score),[10],-0.08
same,glycan array binding signal (z-score),[11],0.085
same,glycan array binding signal (z-score),[12],0.054
same,glycan array binding signal (z-score),[13],-0.182
same,glycan array binding signal (z-score),[14],-0.184
same,glycan array binding signal (z-score),[15],0.434
same,glycan array binding signal (z-score),[16],-0.215
same,glycan array binding signal (z-score),[17],0.1
same,glycan array binding signal (z-score),[18],-0.376
same,glycan array binding signal (z-score),[19],-0.02
same,glycan array binding signal (z-score),[20],0.243
same,glycan array binding signal (z-score),Fuc(a1-2)Gal(b1-4)Glc,-0.185
same,glycan array binding signal (z-score),Fuc(a1-2)Gal(b1-4)Glc6S,0.014
same,glycan array binding signal (z-score),Fuc(a1-2)Gal(b1-4)GlcNAc,-0.154
same,glycan array binding signal (z-score),[21],-0.462
same,glycan array binding signal (z-score),[22],0.359
same,glycan array binding signal (z-score),[23],-0.285
same,glycan array binding signal (z-score),[24],0.358
